Results from the supplement of paper PMC3724861.
Some of the results follow.

The sequences below were run on T1, Caupolican (Caup) homeodomain DNA-binding domain (assay: PBM E-score (8-mer, recovered from the published 9-mer minima) (E-score (dimensionless, -0.5 to 0.5)); Drosophila protein; higher = stronger relative binding preference, active = 0.31 or more).
T1 sequence: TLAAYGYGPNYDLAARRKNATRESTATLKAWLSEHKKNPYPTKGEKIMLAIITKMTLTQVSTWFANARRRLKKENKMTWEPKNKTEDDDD
Description: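 Protein binding microarray (PBM): in vitro transcribed/translated Caupolican (Caup) homeodomain DNA-binding domain (residues 214-303) applied at 100 nM to a universal 8-mer PBM array (Agilent AMADID 015681). The 8-mer enrichment score (E-score, range -0.5 to 0.5) was computed, and each 9-mer score is the minimum E-score of its two constituent 8-mers. The E-score is the same for a 9-mer and its reverse complement; 0.31 is the stated binding threshold.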

Row | Sequence | PBM E-score
1 | AATTGAGC | inactive: -0.0237
2 | CGGGTTAG | inactive: -0.0766
3 | CCCACGAC | inactive: -0.16
4 | TCGGGGAA | inactive: -0.0407
5 | ACCCTGTA | ≥ 0.166
6 | CGTTGGCC | inactive: -0.176
7 | AAGGCTAG | inactive: 0.01
8 | CTCTATTA | inactive: 0.0344
9 | CAGAGGGG | inactive: -0.312
10 | ATAATAGG | inactive: 0.0633
11 | ATCATGTC | active: ≥ 0.42
12 | ACTGTACT | inactive: 0.0884
13 | AGGGTTCA | inactive: -0.0368
14 | GTTACACA | active: 0.339
15 | CGTTACAG | inactive: 0.128
16 | CCTGGTAC | inactive: 0.161
17 | AGTGGTCC | inactive: -0.0558
18 | GTAATGTA | inactive: 0.273
19 | CCAACAAG | inactive: 0.196
20 | ATCGTTAA | inactive: 0.149
21 | CTATTTTA | inactive: 0.0799
22 | AACGTACC | inactive: 0.0531
23 | AAAGAACG | inactive: -0.0322
24 | CTTTGTAA | inactive: 0.259
25 | GAGCCGGA | inactive: -0.276

Row | Sequence | PBM E-score
26 | AGCAAGGG | inactive: -0.0948
27 | ACGGACAG | inactive: 0.0915
28 | ACCATTCC | inactive: 0.0013
29 | CAATGAAA | inactive: 0.0427
30 | AACTCAGC | inactive: -0.115
31 | CGTAGGGA | inactive: -0.065
32 | AACATTGC | inactive: 0.193
33 | CCTCCCCA | inactive: -0.169
34 | AGTAACCG | inactive: -0.0194
35 | CGTTGGAA | inactive: 0.00621
36 | AGGATGGG | inactive: -0.132
37 | AGTTTTCA | inactive: 0.0509
38 | AAGCTTCT | inactive: -0.0362
39 | AAGCAAAC | inactive: 0.102
40 | CACAAGAA | inactive: 0.0855
41 | GGGATACC | inactive: -0.141
42 | ATAGTGTA | ≥ 0.211
43 | TGTCTGAA | inactive: 0.159
44 | ACGAGCTC | inactive: -0.0848
45 | GATACCAC | inactive: 0.00761
46 | AGATATAG | inactive: 0.165
47 | AGGTCTAG | inactive: -0.121
48 | GGTCGACA | inactive: 0.0565
49 | CATAGCAG | inactive: 0.0448
50 | ACGCGAGT | ≥ -0.00136

Row | Sequence | PBM E-score
51 | ACACTGCC | inactive: 0.0956
52 | ATTGGGAC | inactive: 0.0623
53 | CTCACGGA | inactive: -0.0859
54 | ATCAACCG | inactive: -0.0335
55 | CCCCAGGC | inactive: -0.251
56 | ATTGTATC | inactive: 0.215
57 | ACAGAGGG | inactive: -0.13
58 | CTTGTGCC | inactive: -0.0395
59 | ATAAATGC | inactive: 0.0532
60 | ACCTTTCT | inactive: -0.011
61 | CCTCTACC | inactive: -0.0946
62 | ATAATTAT | ≥ 0.255
63 | AGGACCCT | inactive: -0.0986
64 | AGACACAA | inactive: 0.248
65 | CGTAAAAA | inactive: 0.0273
66 | ATGCTTTG | inactive: 0.173
67 | GTGAATAA | inactive: 0.143
68 | ACTTTCCA | ≥ 0.0062
69 | CATTTAGA | inactive: 0.0432
70 | CTCAGAGA | inactive: -0.143
71 | TGGTTAAA | inactive: 0.112
72 | TATGCATA | inactive: 0.114
73 | ATTCGGCC | inactive: -0.0735
74 | GTCATCCA | inactive: 0.073
75 | GGGATTAC | inactive: 0.0873

Row | Sequence | PBM E-score
76 | GAAGTGCC | inactive: -0.133
77 | AAGGAACA | inactive: 0.211
78 | AATGGCCG | inactive: -0.165
79 | ATATCGTG | inactive: 0.106
80 | CTCTCGTC | inactive: -0.0767
81 | CGCACATC | inactive: -0.0196
82 | AACCGCTG | inactive: -0.0919
83 | AATACCAG | inactive: 0.171
84 | GCGTGGGA | inactive: -0.135
85 | CCAAACAC | inactive: 0.152
86 | AAAGCGAG | inactive: -0.102
87 | AAGACCTG | inactive: -0.0291
88 | CACCCCCA | inactive: -0.112
89 | AAAGCACG | inactive: 0.021
90 | CGAAAGGA | inactive: 0.0204
91 | GCATTCTA | inactive: 0.0737
92 | AGTAAGAA | inactive: 0.06
93 | AAGAGAAA | inactive: -0.0885
94 | GAAATTGA | inactive: 0.016
95 | GCTCAACC | inactive: -0.147
96 | AGTTATCC | inactive: 0.076
97 | TGCGGGAA | inactive: -0.119
98 | CTAGCTGA | inactive: -0.0069
99 | ACGTGTCC | inactive: 0.17
100 | CACGATGA | inactive: 0.0802

Row | Sequence | PBM E-score
101 | AGCCCGTG | inactive: -0.198
102 | AGTATGGA | inactive: 0.0729
103 | CAGCCGTA | inactive: -0.0465
104 | ATGGCGAG | inactive: -0.11
105 | ACGTACGA | inactive: 0.0503
106 | CAGTAGCA | inactive: 0.0416
107 | GATTGAGC | inactive: -0.105
108 | ACCCTCCT | inactive: -0.2
109 | AATCAGGC | inactive: -0.0419
110 | GTTAAAGA | inactive: 0.0986
111 | ACCAGACG | inactive: -0.0302
112 | ATACCAGA | inactive: 0.146
113 | GGTGCAAA | inactive: -0.08
114 | GGGCCGGA | inactive: -0.303
115 | GCTTTCAC | inactive: -0.0248
116 | ACTTCCAC | inactive: 0.0199
117 | ATGGTGTG | inactive: 0.112
118 | AACGGGGG | inactive: -0.236
119 | ACGAGGCC | inactive: -0.171
120 | CCGAAGCG | inactive: -0.222
121 | AAGGGAAA | inactive: -0.00432
122 | GCCGAGTA | inactive: -0.143
123 | CCTGTATC | inactive: 0.125
124 | ATCCAACA | inactive: 0.192
125 | ATCTAAGC | inactive: -0.0923

Row | Sequence | PBM E-score
126 | AGATCAAC | inactive: 0.0938
127 | AGGTACCA | ≥ 0.0649
128 | CATACTAG | inactive: 0.237
129 | ATGTTGCG | inactive: 0.225
130 | ACAACTCT | inactive: 0.147
131 | ACAACTGA | ≥ 0.224
132 | GCCCTCCA | inactive: -0.222
133 | CCATTACG | inactive: -0.0233
134 | ATCTACCC | inactive: -0.072
135 | CACCCCCG | inactive: -0.222
136 | AGGTTTTG | inactive: -0.0365
137 | CCCACACG | inactive: -0.0758
138 | ACCGGTGA | inactive: -0.0922
139 | ATTGTGTG | inactive: 0.142
140 | ACCTCCGA | inactive: -0.0504
141 | ACTGTGCG | inactive: -0.0021
142 | GGGGCGAA | inactive: -0.197
143 | AAGGGACA | inactive: 0.124
144 | TACGTATA | inactive: 0.171
145 | GGCTTACA | inactive: 0.131
146 | GGATGGCA | inactive: -0.00944
147 | AGAGTATC | ≥ 0.108
148 | TGTCCTAA | inactive: 0.192
149 | GAAGCTAC | inactive: -0.00674
150 | AAATACCA | inactive: 0.101

Row | Sequence | PBM E-score
151 | AACACAAC | active: ≥ 0.339
152 | AAAGCAAT | inactive: 0.122
153 | GAATCTGC | inactive: -0.0402
154 | TCGCGGAA | inactive: -0.17
155 | CGAATTGC | inactive: -0.0371
156 | AGGTACCG | inactive: -0.0903
157 | GGACTATA | inactive: -0.00439
158 | CCGACCGA | inactive: -0.201
159 | CTACCCCC | inactive: -0.278
160 | GAGCCGCA | inactive: -0.151
161 | ATTAGCAC | inactive: -0.00274
162 | GGACTGCC | inactive: -0.173
163 | ACAGCGCA | inactive: 0.0114
164 | ATACGGAT | ≥ 0.0883
165 | ATCCGGCG | inactive: -0.0736
166 | CCAAGCGC | inactive: -0.119
167 | AAAGAAGC | inactive: -0.0635
168 | CCTCCTTC | inactive: -0.216
169 | AGTTTACA | inactive: 0.289
170 | AGCTACAG | inactive: 0.0132
171 | AAATCCAT | ≥ 0.133
172 | ATGTGAAT | inactive: 0.166
173 | TAAAAGGA | inactive: 0.00611
174 | CTTGCGTC | inactive: -0.0726
175 | GGTAATCA | inactive: 0.188

Row | Sequence | PBM E-score
176 | CCGACTCC | inactive: -0.132
177 | AACATTTC | ≥ 0.297
178 | ACAATTGG | inactive: 0.0026
179 | GAGCTTGC | inactive: -0.188
180 | AAGTAGCC | inactive: -0.0533
181 | GACGTGGA | inactive: -0.0891
182 | GCGAATTA | inactive: 0.0826
183 | AGAGAGAC | inactive: -0.0888
184 | CGGACTAG | inactive: -0.108
185 | GCCATACC | inactive: -0.148
186 | CCCTTTTA | inactive: -0.0355
187 | GGCGAGGA | inactive: -0.165
188 | AGGATAGG | inactive: -0.0574
189 | GAGTTATA | inactive: 0.0755
190 | TCGTCAGA | inactive: -0.0168
191 | ACATGCGA | inactive: 0.249
192 | GCGGCAAC | inactive: -0.102
193 | GCTATCCA | inactive: -0.0138
194 | ACCTCCAC | inactive: -0.219
195 | GAGGACAC | inactive: 0.0986
196 | ACTGATCT | inactive: 0.0818
197 | GCGAGAGA | inactive: -0.0945
198 | CGTTAGAG | inactive: -0.0194
199 | ATGTGGTA | inactive: 0.161
200 | CAGCACTC | inactive: -0.0601

Row | Sequence | PBM E-score
201 | ATCGGGTC | inactive: -0.0871
202 | CCGGGAAC | inactive: -0.0764
203 | ATTCTTAA | inactive: 0.0707
204 | CCCTTGCC | inactive: -0.205
205 | CGTCTTTA | inactive: -0.0375
206 | CATCGCCG | inactive: -0.121
207 | ACCCCTTC | inactive: -0.104
208 | CCACCGGC | inactive: -0.281
209 | GATTTTGC | inactive: 0.019
210 | GCGACACC | inactive: 0.026
211 | TATCACGA | inactive: 0.113
212 | ATATAAGG | inactive: 0.0261
213 | CCATCAGG | inactive: -0.159
214 | ACAAACCT | inactive: 0.0926
215 | AATTTCAA | inactive: 0.104
216 | CTCGTAAC | inactive: 0.0881
217 | GTAAGAAC | inactive: 0.228
218 | CCGCTAGG | inactive: -0.199
219 | CACCACAA | inactive: 0.081
220 | GTATGCTA | inactive: 0.0712
221 | ACTGGGCA | inactive: -0.122
222 | ACGTCGCA | inactive: -0.127
223 | GTAATATA | inactive: 0.225
224 | AACCTTCT | inactive: -0.0799
225 | CGGGCACG | inactive: -0.188
